Where a name gives a salt, the structure may show the parent alone. Some of the results follow. Single values are uncertain, as repeats are few or missing.
Tested on: A549
Assay: cell-surface PD-L1 MFI ratio relative to cisplatin alone (isotype-subtracted); higher = higher PD-L1 surface expression
Conditions: inducer: cisplatin 4 uM; 10 µM; 24 h
Protocol: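 A549 and H460 NSCLC cells were treated with each library drug at 10 uM, then with radiation (8 Gy) or cisplatin (4 uM), and incubated for 24 h. Cell-surface PD-L1 was measured by flow cytometry as an MFI ratio: (MFI drug+inducer - MFI isotype)/(MFI inducer alone - MFI isotype). Hits were defined as ratio < 0.75.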

| Compound | cell-surface PD-L1 MFI ratio |
| --- | --- |
| C[C@@H](N)[C@H]1CC[C@H](C(=O)Nc2ccncc2)CC1 | active: 0.568 |
| CN1CCN(c2nc(C3=C(c4c[nH]c5ccccc45)C(=O)NC3=O)c3ccccc3n2)CC1 [Sotrastaurin] | inactive: 2.68 |
| CN(C(=O)c1ccc(F)cc1C(F)(F)F)C1CCN(c2nnc(-c3ccnn3C)c3ccccc23)CC1 | active: 0.608 |
| CN1CCN(Cc2ccc(-c3cnc4[nH]cc(-c5ccc6[nH]ccc6c5)c4c3)cc2)CC1 | inactive: 1.31 |
| O=S(=O)(c1cccc2c(I)cccc12)N1CCCNCC1 | active: 0.502 |
| CCn1cc(-c2cccc(C(F)(F)F)c2)c2sc(C(=N)NC3CCS(=O)(=O)CC3)cc2c1=O | active: 0.476 |
| CN1CCN(c2ccc(-c3cccc(CN4CCOCC4)c3)cc2NC(=O)c2c[nH]c(=O)cc2C(F)(F)F)CC1 | inactive: 0.773 |
| Clc1ccc(NN=C(c2ccccc2)c2ccccn2)nc1 | inactive: 1.62 |
| Nc1cccc(-c2cc3c(Oc4cccc(O)c4)ncnc3[nH]2)c1 | inactive: 1.28 |
| N#CC1(c2ccc(NC(=O)c3cccnc3NCc3ccncc3)cc2)CCCC1 [Apatinib] | active: 0.739 |
| O=C(O)c1ccc2c(c1)nc(Nc1cccc(Cl)c1)c1ccncc12 [Silmitasertib (CX-4945)] | inactive: 1.58 |
| CCS(=O)(=O)N1CC(CC#N)(n2cc(-c3ncnc4[nH]ccc34)cn2)C1 | inactive: 1.39 |
| CS(=O)(=O)c1ccc(C(=O)Nc2ccc(Cl)c(-c3ccccn3)c2)c(Cl)c1 [Vismodegib (GDC-0449)] | active: 0.526 |
| CCN(c1cc(-c2ccc(CN3CCOCC3)cc2)cc(C(=O)NCc2c(C)cc(C)[nH]c2=O)c1C)C1CCOCC1 [Tazemetostat (EPZ-6438)] | active: 0.527 |
| COCC[n+]1c2c(n(Cc3cnccn3)c1C)C(=O)c1ccccc1C2=O [YM155 (Sepantronium Bromide)] | inactive: 2.11 |
| C[C@@H]1COCCN1c1cc(C2([S@](C)(=N)=O)CC2)nc(-c2cc[nH]c3nccc2-3)n1 | inactive: 1.44 |
| c1ccc2c(-c3cnn4cc(-c5ccc(N6CCNCC6)cc5)cnc34)ccnc2c1 | inactive: 3.83 |
| CC[C@@H]1C(=O)N(C)c2cnc(Nc3ccc(C(=O)N[C@H]4CC[C@H](N5CCN(CC6CC6)CC5)CC4)cc3OC)nc2N1C(C)C [Volasertib (BI 6727)] | inactive: 1.39 |
| CN(c1ncccc1CNc1nc(Nc2ccc3c(c2)CC(=O)N3)ncc1C(F)(F)F)S(C)(=O)=O | inactive: 0.811 |
| Nc1ncn([C@H]2C[C@H](O)[C@@H](CO)O2)c(=O)n1 [Decitabine] | active: 0.733 |

| Compound | cell-surface PD-L1 MFI ratio |
| --- | --- |
| Cc1ccc(CNc2ncnc3ccc(-c4ccc(CO)o4)cc23)o1 | active: 0.583 |
| Cc1ccc(C(=O)Nc2cccc(C(F)(F)F)c2)cc1Nc1nc(-c2cccnc2)nc2c1cnn2C | inactive: 1.22 |
| Nc1ccc(C(=O)Nc2cccc(-c3nc(N4CCOCC4)c4oc5ncccc5c4n3)c2)cn1 | active: 0.711 |
| CC(=O)O[C@H]1C(=O)[C@@]2(C)[C@H]([C@H](OC(=O)c3ccccc3)[C@]3(O)C[C@H](OC(=O)[C@H](O)[C@@H](NC(=O)c4ccccc4)c4ccccc4)C(C)=C1C3(C)C)[C@]1(OC(C)=O)CO[C@@H]1C[C@@H]2O [Paclitaxel] | inactive: 0.995 |
| CC(C)S(=O)(=O)c1ccc2nccc(Nc3ccc4scnc4c3)c2c1 | active: 0.592 |
| COc1ccc(CCc2nc3cc(-c4c(C)noc4C)ccc3n2C[C@H](C)N2CCOCC2)cc1Cl | inactive: 0.918 |
| Nc1ccccc1NC(=O)c1ccc(CNC(=O)OCc2cccnc2)cc1 [Entinostat (MS-275)] | inactive: 1.7 |
| CCc1ccc(/C=C2/SC(=S)NC2=O)cc1 | active: 0.567 |
| O=C(/C=C/c1ccc2ccc(C(F)(F)F)cc2n1)c1ccncc1 | active: 0.579 |
| Cc1cc(Nc2cc(N)ncn2)c(=O)n2c1C(=O)NC21CCCCC1 [Tomivosertib (eFT-508)] | inactive: 0.823 |
| Cc1cc(O)c(-c2ccc([C@@H](C)CN)cc2)c2c1[nH]c(=O)c1sccc12 [OTS514 hydrochloride] | inactive: 1.59 |
| Cc1cc(F)c(C(=O)Nc2cccc(-c3nncn3C(C)C)n2)cc1-n1cnc(C2CC2)c1 [Selonsertib (GS-4997)] | inactive: 1.12 |
| C[C@H](NC(=O)c1c(N)nn2cccnc12)c1cc2cccc(C#Cc3cnn(C)c3)c2c(=O)n1-c1ccccc1 | inactive: 1.16 |
| COc1cccc(OCCCN)c1-c1cc(Nc2cnc(C#N)cn2)n[nH]1 | active: 0.733 |
| Cc1nc(-c2cn3c(n2)-c2ccc(-c4cnn(C(C)(C)C(N)=O)c4)cc2OCC3)n(C(C)C)n1 [Taselisib (GDC 0032)] | inactive: 0.838 |
| Cc1ccc(S(=O)(=O)OCC(=O)Nc2ccc(C(=O)O)c(O)c2)cc1 | active: 0.636 |
| O=C(/C=C/c1cncc(F)c1)c1c(-c2ccccc2)c2cc(Cl)ccc2[nH]c1=O | inactive: 2.86 |
| O=C(c1ccc(Nc2nccc(-c3cc4ccccc4s3)n2)cc1)N1CCC(N2CCCC2)CC1 [IKK-16 (IKK Inhibitor VII)] | inactive: 1.08 |
| COc1ncc(-c2ccc3nccc(-c4ccnnc4)c3c2)cc1NS(=O)(=O)c1ccc(F)cc1F | active: 0.627 |
| COc1cc(Nc2ncc3c(n2)-c2ccc(Cl)cc2C(c2c(F)cccc2OC)=NC3)ccc1C(=O)O [Alisertib (MLN8237)] | inactive: 0.877 |
